Read counts are not given, so values of variants with three or more changes are uncertain.

Consider 167 variants from the RNAGym collection of RNA variant scans (doi:10.7554/elife.90254).

B1: OR4K15 (parent)
chain: GUUAACGGUCAUAGGCCAUGGAAACUAGGAGCACCAUUUCGCUGCCAGUGAAGAAAUGAACAAAGAAAAUCUGGGCCAGGCAGGCAUCAAAAGAAAUAGUCUUGCGCUCAACCAGAAAGUCUGUAAUCAUUUUAAGGGUA

Variants of B1 are the subject of this data set. The data set is described as follows: self-cleavage, relative activity (ratio to wild type); higher = more cleavage; in vitro, sequencing; the parent is a self-cleaving ribozyme.
With U49C A59G U87A, the self-cleavage was found to be 1.41. Regarding U49C A63G U103C, the self-cleavage is 1.13. Turning to A47U A67G C109A A118U, the self-cleavage was determined as 0.04. With U49A A54G A67G A95G, the self-cleavage came out at 1.29. As for U43C A91G U103A, the figure is 0.49; as for A47G A59G A64U, 0.77; as for U43C A60G A78G U133A, 0.24.

Take U43C A95G A117G: the self-cleavage amounted to 2.15.

With A47G A55G A78G A90G, the self-cleavage came to 0.13. Regarding G44A A54G A66U A114U A129G, the self-cleavage was found to be 0.02. The value for U43C U124C A129G was 0.9; that for A47C A60C A117G was 2.45. As for U49C A59G U132A, the figure is 0.95; as for C46U A52G A67G U120C, 0.94. As for A47C U103C A129G, the figure is 0.3; as for U43C U72A G93A, 0.53; as for A47G A68G C77U A95G C113U, 0.08. With U43C A63C U100C, the self-cleavage was 1.97. The value for A47U A92G U122C U139A was 0.32; that for U49A A51U A67G U72A was 0.35. The value for U49C A68G U87C was 1.25; that for A47G A82U U127C was 0.13. The value for U49C A63C A78G U130C A135G was 0.14; that for C45U A91G A126G A129G was 0.29. For A47C A78G A95G U133C, the self-cleavage was found to be 0.22.

Regarding C46A A114C A118G, the self-cleavage came to 0.04. The value for A47U A56G A64C C112A was 0.02. The value for U43C A82U A118G was 0.11; that for G48U U70C U87C U122C was 0.3; that for U49C A62G A90G was 0.33. The value for C45A A114U A126C was 0.01; that for U43C A91G U103C U108C A116G was 0.01; that for U49A A66U A96G was 1.98. A47U A60G A69G: the self-cleavage was 0.38. The value for U43C U57A A96G A117G was 1.42; that for U43C A82U U108C was 0.02; that for C46U A51C A52C A60G was 1.05. With A47G A51G A117U, the self-cleavage is 1.12. With U49A A89G A110G, the self-cleavage worked out at 0.04.

As to A47C U122A U127A, the self-cleavage was found to be 0.91. As for A47G A67G A90G A96G U100C, the figure is 1.34. The value for A47G A62U A126G was 0.46; that for U49C A52G A114U A129U was 0.02; that for A47U A63U A140G was 1.39. Take G48A A96G U130C: the self-cleavage turned out to be 1.57. As for U49C A92G A110U A111G A118G, the figure is 0; as for A47U A54G U132C, 0.57; as for A47G A67G A94U, 2.24. As for U43C A89G A117G U133A, the figure is 1.43; as for A47G A59G A63G U102C, 2.89. With A47G A82U A111G, the self-cleavage came out at 0.01. As for U49C G53U A78U A118G, the figure is 0.18. With G44A U49C U57A A111C, the self-cleavage was determined as 0.05. The value for U49C G50A A111U was 0.03; that for A47U U49A U124G was 0.36; that for U43C A64G A86G was 1.36. With A47U A64G A66G G99A, the self-cleavage came out at 0.17.

As to U49A U102C U122C A135G, the self-cleavage came out at 1.49. The value for C45U A62C A82G A110G A126G was 0.01. The value for A47G G104A U122A was 0.02.

Regarding U49C A89G A114U, the self-cleavage turned out to be 0.15. In the case of U49C A66G C105A, the self-cleavage was determined as 0.01. As to A47G A118G A126G, the self-cleavage was determined as 0.64.

Turning to C46U U108C U127A, the self-cleavage is 0.02. As for A47G A54G U102A A116G, the figure is 0.26; as for U49C A62C A66G, 1.7; as for U43C A89G A94G A116G, 0.52.

Turning to U49C A96G C109U, the self-cleavage amounted to 0.09. The value for A47U A60G U100C U102C A114G A117G was 0.3; that for C45A A67G U103C was 0.62. As to A47G A63G A91G A95U, the self-cleavage amounted to 0.44.

U43C U97C A140G: the self-cleavage came to 1.89. As for U43C A111U A126G, the figure is 0.07; as for C46U A68G G123A, 1. The value for U49C A59U A67G was 1.18. As for C46A A92G U124C, the figure is 0.52; as for U49A A67G A94G, 1.17.

For U43C U103C A116G, the self-cleavage stood at 0.28. As for U49C G74A A82C, the figure is 0.19; as for A47G A55G G83A U131C, 1.6; as for U43C U57C A82U A95G A117G, 0.16. As for U49C A55U A89U A116G, the figure is 0.49; as for U43C A78G A82G A126G, 0.09. For the variant A47U A51G A94G U108C, the self-cleavage was 0.01. The value for A47G C101U A114G U139C was 0.05; that for G48U A92G C128A was 1.01; that for G48A A63G A89G A135G was 0.9.

As to U49C A55C U100A U122A, the self-cleavage was determined as 0.35. For the variant U49A A117G U131C, the self-cleavage worked out at 1.16.

As to C46U A91G A96G, the self-cleavage is 0.46. The value for U43C A66G C105U U127C was 0.02; that for A47G A55G U108C A135G was 0.01; that for U49C A52G A64U A126G was 1.11.

C46U A47U U57C U72A U133C: the self-cleavage stood at 0.14.

For the variant A47G A95G U131A, the self-cleavage was determined as 2.16. The value for A47G A66G A96G A117G was 1.03. Take G44A A47U A86U A110U: the self-cleavage amounted to 2.47. As to A47U A54G A69G, the self-cleavage was 1.18.

Turning to U49C A82G A110G, the self-cleavage was 0.07. As for U49A A56G A90G, the figure is 0.81. As for U49C A66G U130A, the figure is 0.71; as for G44A U100C A110U, 2.91. For A47G A54G U102A G136A U139C, the self-cleavage came out at 0.86. As for A47G U70C A90C, the self-cleavage came to 0.46. As for U49C A60G A66G A69U, the figure is 1.67. On to U49A U108C U132C, for which the self-cleavage was 0.01. The value for U43C U57C U70C was 0.63; that for U43C A89U U122A was 1.4. In the case of U49C A56G A60G A82G, the self-cleavage amounted to 0.12.

Consider U49A A78U A114U, for which the self-cleavage was 0.02. The value for U49C A51G A60C A118G was 1.55; that for G44A A67G U72C A111G was 0.01; that for U43C A95G U108C was 0. As for A47G A69G A110G, the figure is 0.11; as for A47G A67G A95G U102C, 2.32. The value for A47U A64G U132C was 0.41; that for A47G U108C A110G was 0.01; that for G44A U72A U102A was 0.19. Take A47G U49G A78U: the self-cleavage stood at 0.15. The value for U43C A111G A114G was 0; that for U49C C107A A114G U132C was 0.01. As for A47U A62U C71U A94G, the figure is 0.26; as for C45A A66G A98U, 2.25; as for U49C A59G A69C A96G, 0.71. The value for U43C U103G U131C was 0.03; that for A47G A54G A114G was 0.23; that for A47G A78U A86U A140G was 0.73. Take U43C A59G U72A U122C: the self-cleavage worked out at 0.11. As for U49C A54C A86G G137A, the self-cleavage was 1.28. The value for A47C A55G A129U was 1.26. As for A47G A78C U87A A96G U103C, the figure is 0.12; as for G44A A62G A111G U127C, 0.02. As to G48A A54U G83U A91G, the self-cleavage is 0.06. Take A47G U87C U120G: the self-cleavage was found to be 0.48. As for A47C U108C C109A, the figure is 0.02; as for U43C U102C A126G, 2.59; as for A47G A56G A82G A116G A117G, 0.09. As for C46U A52G U70C U132C, the figure is 0.76. As for U43C A89U A96G U124A U131C A135G, the figure is 0.64; as for C46U A60U A78G, 0.6. In the case of G48U A51G A66G U130C, the self-cleavage was found to be 0.57. As for A47C A55G U87A A92C, the figure is 0.63; as for U43G A111U U124C, 0.24. The value for A47G A64G A118U was 0.27; that for C45A A52G A68G U108C U122C A129G was 0. In the case of A47C A78G U120C, the self-cleavage turned out to be 0.15.

On to U43C C76U U102C, for which the self-cleavage amounted to 0.23. The value for A47C A82G A126G was 0.08; that for U43C A78G A82G A117G U133C was 0.05; that for U43C G83U A91G was 0.28. As for A47G A55G A68G A91G A118U A135U, the figure is 0.07; as for U43C A55G U103G U120C U124C A126C U127C, 0. In the case of A47C U102C A111G, the self-cleavage was determined as 0.01.

For the variant A47U A62U A82G A92G A116U U133C, the self-cleavage was 0.09.

Consider C46A A111G A117G, for which the self-cleavage was found to be 0.01. As for U49C A94G A111G, the figure is 0.01; as for U49C A51G A67G A89G U131C, 1.24; as for U43C A86G A95G A96G, 1.1.

On to U43C A64G A68G, for which the self-cleavage is 1.58. As for C46U A64U A82G U97C U120C, the figure is 0.1. The value for C45U A47G A134G was 1.09. Turning to U49C A55G A59G C112A, the self-cleavage stood at 0.04. The value for U49C A94G U100G A117G U122C was 1.77. For the variant U43G A59G U72C U87C A94G, the self-cleavage was 0.29.

As for U43C U87C U130C, the self-cleavage was determined as 1.1. Consider G48A A82U U131C, for which the self-cleavage was determined as 0.19. As for G44U U108C A126G U127C U130C, the figure is 0.
